Measured values from PMC4336329 (PLoS ONE, 2015).
The campaign covered roughly 310,000 compounds. About 2,200 (0.71%) showed an effect of 50% or more. Effects have a minus sign here. The list shows a part of the results.

molecular target: human ether-à-go-go-related gene (hERG) potassium channel (human, UniProt Q12809); assay: primary screen, population patch clamp on CHO cells stably expressing hERG
Sequence (Q12809 whole entry, looked up): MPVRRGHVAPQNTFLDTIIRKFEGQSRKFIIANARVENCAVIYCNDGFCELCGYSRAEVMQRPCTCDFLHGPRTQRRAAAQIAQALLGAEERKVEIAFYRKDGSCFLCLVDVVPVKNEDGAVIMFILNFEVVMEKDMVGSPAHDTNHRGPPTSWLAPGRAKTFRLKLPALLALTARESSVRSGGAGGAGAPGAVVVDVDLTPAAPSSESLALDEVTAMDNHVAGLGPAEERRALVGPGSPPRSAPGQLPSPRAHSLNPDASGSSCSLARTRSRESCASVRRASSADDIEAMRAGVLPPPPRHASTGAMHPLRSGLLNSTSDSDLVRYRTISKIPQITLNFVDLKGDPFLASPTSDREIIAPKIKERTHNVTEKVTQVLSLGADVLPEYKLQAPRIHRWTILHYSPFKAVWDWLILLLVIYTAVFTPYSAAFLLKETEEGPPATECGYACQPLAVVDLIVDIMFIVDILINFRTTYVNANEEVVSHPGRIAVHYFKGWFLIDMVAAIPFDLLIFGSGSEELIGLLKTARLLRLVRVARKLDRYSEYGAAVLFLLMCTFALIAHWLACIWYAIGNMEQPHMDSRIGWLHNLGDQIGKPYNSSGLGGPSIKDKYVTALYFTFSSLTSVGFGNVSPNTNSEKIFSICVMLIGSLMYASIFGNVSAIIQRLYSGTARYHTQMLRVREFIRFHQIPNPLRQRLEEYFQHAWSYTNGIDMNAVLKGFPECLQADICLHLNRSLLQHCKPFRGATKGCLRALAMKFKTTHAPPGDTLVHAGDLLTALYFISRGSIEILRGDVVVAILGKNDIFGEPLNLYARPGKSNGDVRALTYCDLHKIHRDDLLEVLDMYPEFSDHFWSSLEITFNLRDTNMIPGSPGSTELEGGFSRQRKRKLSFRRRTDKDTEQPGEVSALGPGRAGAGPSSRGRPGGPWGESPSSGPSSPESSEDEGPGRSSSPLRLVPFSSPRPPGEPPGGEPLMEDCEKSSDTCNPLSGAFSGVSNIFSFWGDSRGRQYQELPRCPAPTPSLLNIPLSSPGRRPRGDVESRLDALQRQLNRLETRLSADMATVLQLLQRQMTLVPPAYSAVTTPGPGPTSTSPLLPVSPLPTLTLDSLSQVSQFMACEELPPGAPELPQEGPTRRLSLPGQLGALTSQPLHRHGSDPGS

Point of comparison: `Cc1noc(NC(=O)c2c(-c3c(Cl)cccc3Cl)noc2C)c1[N+](=O)[O-]`, “hERG current change (%, negative = inhibition) at 1uM” value 9.64%. Against it:
- Cc1ccc(SCC(=O)Nc2ccc3c(c2)OCCO3)cc1 — higher, 10.6%
- COc1cc(-c2c(C#N)c(N)nc3[nH]c(=S)[nH]c(=O)c23)ccc1O — higher, 12.9%
- COc1ccc(/C=C/C(=O)C2(O)CCCCC2)cc1OC — higher, 18.8%
- Cc1ccccc1-n1nc2c(c1NC(=O)/C=C\c1ccc3c(c1)OCO3)CSC2 — higher, 9.93%
- CCC(C)(C(=O)NC1CCCCC1)N(CC1CCCO1)C(=O)CNC(=O)c1ccccc1 (centres unmarked) — lower, 9.5%
- Cc1[nH]c(=O)[nH]c(=O)c1NC(=O)CSc1ncccc1-c1nc2ccccc2[nH]1 — higher, 10.2%
- CCCCNC(=O)c1cc2c(C)cc(C)cc2[nH]1 — higher, 12%
- Cn1c(=O)c2c(nc(N3CCNCC3)n2Cc2cccc3ccccc23)n(C)c1=O — higher, 14.7%
- COC(=O)c1ccc(OC)c(CN2CCCN(Cc3cc(C)ccc3C)S2(=O)=O)c1 — higher, 13.7%
- COc1cc(C(=O)NNC(=O)c2ccc3ccccc3n2)cc(OC)c1OC — higher, 16.3%
- O=[N+]([O-])c1cccc2c1ccc1ncccc12 — higher, 11.6%
- COc1cc(OC)cc(C(=O)N2CCN(C(=O)Cc3ccccc3)CC2)c1 — lower, 8.43%
- CCOC(=O)c1c(C)[nH]c(C)c1C(=O)COC(=O)c1cccnc1SC — lower, -4.16%
- Cc1ccc(S(=O)(=O)Nc2ccc(S(=O)(=O)NC(C)(C)C)cc2)cc1 — lower, -4.85%
- Cc1nc2ccccc2c(=O)n1-c1ccccc1C(F)(F)F — higher, 10.8%
- COc1cccc(-c2noc(CCCC(=O)Nc3ccc(C(N)=O)cc3)n2)c1 — lower, 9.51%
- CCn1c(CNC(C)=O)nnc1SCC(=O)c1ccc(Br)cc1 — higher, 11.1%
- CCCC(=O)NC(=S)Nc1cccc(C(C)=O)c1 — lower, -1.51%
- CCC(C)c1ccc(NC(=S)NN2CCOCC2)cc1 (centres unmarked) — lower, -1.83%
- CS(=O)(=O)N1CCC(Oc2ccccc2C(=O)NC2CCOC2)CC1 (centres unmarked) — higher, 27%
- Cc1c(CN2CCC(C(=O)Nc3cccc(-c4cccc(Cl)c4)c3)CC2)cnn1C — lower, 0.147%
- Brc1cccc(OCCn2ccnc2)c1.O=C(O)C(=O)O — lower, 5.76%
- O=C(Cc1ccc(Cl)cc1)Nc1ccncc1 — higher, 22.8%
- O=C(O)C(Cc1ccccc1)N1C(=O)/C(=C/c2ccccc2)SC1=S (centres unmarked) — lower, -0.158%
- N#CC(C#N)=CC1=C2OC(c3ccccc3)=CC(c3ccccc3)=C2CCC1 — higher, 15.2%
- CN(C)c1ccc(C2N(C(=O)N3CCOCC3)CCN2S(=O)(=O)c2ccccc2)cc1 (centres unmarked) — lower, 3.09%
- CCC(CC)c1nnc(NC(=O)CCc2ccccc2)s1 — higher, 10.3%
- O=C(c1cnccn1)N(Cc1cccs1)C1(C(=O)NC2CCCC2)CCCCC1 — lower, 2.56%
- CSc1ccc(CN(C)CC(=O)NCc2ccccc2)cc1 — lower, -11.1%
- O=C1CC(N2CCN(CCc3ccccn3)CC2)C(=O)N1c1ccc(Cl)cc1 (centres unmarked) — lower, -46.2%
- Cc1ncc([N+](=O)[O-])n1CC(=O)Nc1cccc(C(F)(F)F)c1 — higher, 11.1%
- C/C(=N\O)C(C)(C)Nc1ccc(F)cc1 — higher, 12.7%
- COc1ccc(OC)c(-c2csc(NC(=O)CSc3nnnn3C)n2)c1 — lower, 6.93%
- COC(=O)C1NN=C(C(=O)c2ccccc2)C1c1ccccc1 (centres unmarked) — higher, 14%
- Cc1ccc2nc(C3CCN(C(=O)NCc4ccccc4)CC3)[nH]c2c1 — lower, -7.07%
- Cc1cc(N/N=C/c2ccccc2)nc(NCc2ccccc2)n1 — lower, 7.44%
- C=CCNC(=O)c1ccc(Sc2ccccc2)c([N+](=O)[O-])c1 — higher, 10.6%
- NS(=O)(=O)c1ccc2nc(NC(=O)CS(=O)(=O)c3ccc(F)cc3)sc2c1 — higher, 16%
- CCSc1cnn(-c2ccccc2)c(=O)c1Cl — higher, 12.3%
- CC(Cc1ccccc1)NC(=O)NC(C)Cc1ccccc1 (centres unmarked) — higher, 12.9%
- CN1C(=O)/C(=C/c2cccc([N+](=O)[O-])c2)C(=O)N1c1ccccc1 — higher, 12.9%
- CNC(=O)CSc1nc(SC)ns1 — higher, 15%
- CCOC(=O)N/N=C/c1c(F)c(F)c(F)c(F)c1F — higher, 13.5%
- Nn1c(=S)[nH]c2sc3c(c2c1=O)CCCC3 — higher, 21.1%
- CCN1/C(=C/c2cc[n+](CCCS(=O)(=O)[O-])c3ccccc23)Sc2ccccc21 — lower, -1.43%
- COc1ccc(CC2(CO)CCN(Cc3cc4ccccc4o3)CC2)cc1 — lower, -19.9%
- O=C(Cc1ccccc1)N/N=C/c1cccnc1 — higher, 17.1%
- O=C(CSc1nc2ccccc2[nH]1)NCc1ccccc1 — lower, 1.84%
- CSc1nc2ccc(S(=O)(=O)N3CCCCC3)cc2s1 — lower, 9.18%
- CCc1ccc(CN(C)CC(=O)Nc2ccc(S(=O)(=O)N3CCOCC3)cc2)cc1 — higher, 13.5%
- Cc1cc(=O)[nH]c2c1c(C)nn2C1CCCC1 — lower, 3.77%
- COc1ccc2[nH]c(=O)c(C(=O)O)cc2c1 — lower, 5.38%
- COc1ccc2nc(/C=N/NC(=O)[C@@H]3CCCN3C(=O)OC(C)(C)C)ccc2c1 — lower, 8.64%
- COc1ccc(C(=O)OCC(=O)NCCN2C(=O)CSC2=O)cc1 — lower, 2.17%
- O=C(O)Cn1cnc2scc(-c3cccs3)c2c1=O — lower, 8.35%
- N#C/C(=C\c1c(N(Cc2ccccc2)Cc2ccccc2)nc2ccccn2c1=O)C(N)=O — lower, 2.75%
- O=C(Cn1ncc2c(=O)oc3ccccc3c21)N1CCC(N2CCCCC2)CC1 — lower, 5.4%
- COc1ccc(C(C)NC(=O)c2ccc([N+](=O)[O-])cc2)cc1OC (centres unmarked) — lower, -5.39%
- O=C(c1cccs1)N1CCN(c2ccc(Cl)cc2)CC1 — lower, 9.19%
- COc1ccc(C(=O)COC(=O)CNC(=O)c2ccccc2)cc1F — lower, 4.04%
- CCC(C)(C)NC(=O)C(c1ccccc1F)N(Cc1ccco1)C(=O)Cn1nnc2ccccc21 (centres unmarked) — lower, 0.622%
- Cc1ccc(NS(=O)(=O)c2ccc3c(c2)N(C)CCO3)cc1 — lower, -79.6%
- O=C(NC1CC1)[C@@H]1CSC2c3ccccc3C(=O)N21 (some centres unmarked) — higher, 11.4%
- O=C1CCCC/C1=C\Nc1ccc(S(=O)(=O)Nc2cnc3ccccc3n2)cc1 — lower, 5.23%
- CCOC(=O)C1(Cc2ccccc2C)CCCN(S(C)(=O)=O)C1 (centres unmarked) — higher, 15.9%
- Cc1ccc(OCCSC2=NN2c2cc(C)nc(N)n2)cc1 — lower, -2.37%
- CCCCCCC1CC(CCc2nc(=S)[nH][nH]2)C(=O)O1 (centres unmarked) — higher, 12.3%
- COC(=O)c1ccccc1NC(=S)NC(=O)C1CCCCC1 — lower, -1.14%
- Cc1nnc(-c2ccccc2)o1 — higher, 13.1%
- CC(=O)Nc1cc(-c2nn(C)c(=O)c3ccccc23)ccc1N1CCOCC1 — higher, 21%
- C=CCNC(=O)C1CC(=O)N(c2ccc(OCC(=O)Nc3ccc(OC)cc3)cc2)C1 (centres unmarked) — lower, -7.42%
- Cc1cc(C)c(C(=O)c2ccc(C(=O)N(C(C)C)C(C)C)cc2)c(C)c1 — lower, -0.334%
- CC(C)(C)NC(=O)NC(=O)COC(=O)CNC(=O)C1CCCCC1 — lower, 5.39%
- Cc1ccsc1C(=O)N1CCc2ccccc2C1 — lower, 9.22%
- CCN1CCN(CC(=O)Nc2cc(C)c(C)cc2[N+](=O)[O-])CC1 — lower, -7.02%
- Cc1ccc(C(=O)c2ccccc2C(=O)O)c(O)c1 — lower, 6.75%
- COc1ccc(S(=O)(=O)N2CCC(C(=O)N3CCOCC3)CC2)cc1Cl — higher, 11.5%
- N#Cc1ccc(C2=CC(=O)C[C@H](c3ccc4c(c3)OCO4)C2)cc1 — lower, -21.5%
- Nc1cccc2cnccc12 — higher, 18.4%
- CC(C)CC(NC(=O)C1CCC(C)CC1)C(=O)NCCN1CCOCC1 (centres unmarked) — higher, 11.4%
- C[C@@H]1CC=C[C@H]2[C@H]1C(=O)N(Cc1ccccc1)[C@H]2c1ccc(-c2ccc(F)cc2)cc1F — lower, 0.761%
- Cc1cccc(-c2nc(C#N)c(N3CCC(C)CC3)o2)c1 — higher, 14.2%
- CCOC(=O)c1ccccc1NC(=O)COC(=O)CCC(=O)c1ccc(C)cc1 — higher, 10.2%
- Cc1ccc(NC(NC(=O)c2cccs2)C(Cl)(Cl)Cl)cc1 (centres unmarked) — higher, 13.5%
- Clc1cccc2sc(N3CCN(c4ccccc4)CC3)nc12 — lower, 7.47%
- CN=CC1=C(O)c2ccccc2C1=O — lower, 8.27%
- Cc1ccc(S(=O)(=O)c2cc(OC(=O)c3ccco3)ccc2OC(=O)c2ccco2)cc1 — higher, 9.68%
- CSc1ccc(C(=O)NC2CCSc3ccccc32)cc1 (centres unmarked) — higher, 13.7%
- Cc1cccc(C(=O)c2cn[nH]c2-c2ccc(C)cc2O)c1 — higher, 19.4%
- COCC(C)NC(=O)C1CC(c2cccc(Br)c2)=NO1 (centres unmarked) — higher, 14.7%
- Cc1cccc(Oc2coc3cc(OC(=O)c4cccs4)ccc3c2=O)c1 — lower, 2.01%
